The target of experiment [1] is V5-tagged full-length mouse SCIMP, stably expressed in RAW264.7 (mouse) (UniProt Q3UU41). Briefly: co-IP; RAW264.7 stably expressing V5-SCIMP (wild type or Y96F), treated with LPS for the indicated times; immunoprecipitation with V5 antibody, immunoblot; Lyn and Grb2 bound with and without LPS. In general terms: Immunoblotting shows a protein as a band on a membrane.

The chains behind the UniProt entries cited, without tags or fusion partners. Residues count along the entry.
UniProt P25911: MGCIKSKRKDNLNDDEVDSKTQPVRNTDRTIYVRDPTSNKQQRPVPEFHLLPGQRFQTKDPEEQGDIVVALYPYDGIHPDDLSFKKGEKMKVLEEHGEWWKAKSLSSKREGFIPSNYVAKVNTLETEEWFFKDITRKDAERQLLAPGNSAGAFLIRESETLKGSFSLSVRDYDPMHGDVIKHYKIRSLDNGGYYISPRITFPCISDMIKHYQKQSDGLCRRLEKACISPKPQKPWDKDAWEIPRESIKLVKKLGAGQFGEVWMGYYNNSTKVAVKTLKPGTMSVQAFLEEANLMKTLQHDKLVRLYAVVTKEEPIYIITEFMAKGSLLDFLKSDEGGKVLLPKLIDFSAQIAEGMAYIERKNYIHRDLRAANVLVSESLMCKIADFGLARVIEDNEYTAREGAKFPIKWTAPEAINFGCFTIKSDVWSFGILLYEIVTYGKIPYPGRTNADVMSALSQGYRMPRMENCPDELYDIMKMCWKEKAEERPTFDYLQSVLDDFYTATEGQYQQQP
UniProt Q9QUK6, residues 26-835: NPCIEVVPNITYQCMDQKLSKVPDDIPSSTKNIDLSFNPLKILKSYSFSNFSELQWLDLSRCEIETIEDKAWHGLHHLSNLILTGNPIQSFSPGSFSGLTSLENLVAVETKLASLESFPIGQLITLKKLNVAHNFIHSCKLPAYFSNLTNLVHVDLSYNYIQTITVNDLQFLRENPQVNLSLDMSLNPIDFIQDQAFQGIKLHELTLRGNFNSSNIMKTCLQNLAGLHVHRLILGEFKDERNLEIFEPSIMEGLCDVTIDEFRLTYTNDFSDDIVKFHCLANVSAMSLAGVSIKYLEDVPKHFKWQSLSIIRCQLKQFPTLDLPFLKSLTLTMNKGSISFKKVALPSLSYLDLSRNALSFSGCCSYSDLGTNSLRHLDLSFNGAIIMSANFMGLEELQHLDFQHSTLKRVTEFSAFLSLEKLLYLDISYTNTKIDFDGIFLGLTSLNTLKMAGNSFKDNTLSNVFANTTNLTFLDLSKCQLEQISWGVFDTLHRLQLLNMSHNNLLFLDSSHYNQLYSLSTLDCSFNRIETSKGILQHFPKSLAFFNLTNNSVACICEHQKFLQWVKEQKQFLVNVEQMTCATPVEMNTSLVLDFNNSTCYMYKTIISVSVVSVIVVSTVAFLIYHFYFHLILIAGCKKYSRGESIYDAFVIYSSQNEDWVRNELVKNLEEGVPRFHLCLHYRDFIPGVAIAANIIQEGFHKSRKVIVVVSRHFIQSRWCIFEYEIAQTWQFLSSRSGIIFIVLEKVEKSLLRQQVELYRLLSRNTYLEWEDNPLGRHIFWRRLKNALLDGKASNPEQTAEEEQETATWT

For experiment [2], the target named is GST-SCIMP-T1 Y120F (mouse) (UniProt Q3UU41). Briefly: pull-down; GST-SCIMP Sepharose beads with lysates of LPS-activated (30 min) RAW264.7 macrophages, 1 h at 4 °C; 20 mM Tris pH 7.4, 150 mM NaCl, 1% NP-40; immunoblot for TLR4 and Lyn; Lyn also tested in extracts of unstimulated cells; only the target purified.
Experiment [3] has as its target GST-SCIMP-T1 Y58F (mouse) (UniProt Q3UU41). Described as above.
The target of experiment [4] is GST-SCIMP-T1 (entire intracellular region of murine SCIMP, amino acids 29-150) (mouse) (UniProt Q3UU41). The experiment is described as above.
Experiment [5] addresses GST-SCIMP-T2 (C terminal region of murine SCIMP, amino acids 93-150) (mouse) (UniProt Q3UU41). Described as above.
The target of experiment [6] is GST-SCIMP-T1 Y96F (mouse) (UniProt Q3UU41). The experiment is described as above.
The target of experiment [7] is endogenous SCIMP of mouse macrophages (mouse (endogenous in RAW264.7 and BMM)) (UniProt Q3UU41). Briefly: co-IP; as a9, BMM from Lyn^−/− mice stimulated with LPS for 5 min.
The target is the same in experiment [8]. Briefly: co-IP; immunoprecipitation of endogenous SCIMP from lysates of RAW264.7 cells (with or without SU6656) or wild-type BMM stimulated with LPS for 5 min; immunoblot for TLR4; also MyD88-deficient cells.
Experiment [9] has as its target GST-SCIMP-T1 (entire intracellular region of murine SCIMP, amino acids 29-150) (mouse) (UniProt Q3UU41). Briefly: condition: only extracts of unstimulated macrophages; pull-down; as a5, extracts of unstimulated (control) macrophages; only the target purified.
Experiment [10] addresses GST-SCIMP-T2 (C terminal region of murine SCIMP, amino acids 93-150) (mouse) (UniProt Q3UU41). The description is as above.
Experiment [11] has as its target V5-tagged full-length mouse SCIMP, stably expressed in RAW264.7 (mouse) (UniProt Q3UU41). Briefly: co-IP; LPS-activated cells; details only in Supplementary Fig. 5d, not shown.
Experiment [12] deals with full-length mouse SCIMP Y96F, stably expressed in RAW264.7 (mouse) (UniProt Q3UU41). Briefly: co-IP; RAW264.7 stably expressing V5-SCIMP (wild type or Y96F), treated with LPS for the indicated times; immunoprecipitation with V5 antibody, immunoblot; Lyn and Grb2 bound with and without LPS.

No constants are given. Whether binding was seen depends on the method and setting. In cells and extracts the contact can be indirect. Some entries that bind do so weakly or less than the wild type.

Take “Grb2 adaptor protein, endogenous in mouse macrophages (from UniProt Q60631 1-217)”: the binding entry in experiment [1] is recorded as “binds”.

Take “Lyn tyrosine kinase, endogenous in mouse macrophages (from UniProt P25911 1-512) (enzyme)”: the binding entry is on record as “binds” in experiment [2]; “binds” in experiment [3]; “binds” in [4]; “no binding” in experiment [5]; “binds” in experiment [6]; “binds” in experiment [1].

In the case of “endogenous TLR4 of mouse macrophages (from UniProt Q9QUK6 26-835) (receptor)”, the binding entry in [7] is recorded as “no binding (condition: BMM from Lyn^−/− mice)”; in [8] it was “binds”; in experiment [9], “no binding”; in [10], “no binding”; in [2], “binds”; in [3], “binds”. Also, the binding entry in experiment [4] was “binds”; in experiment [5] it was “binds”; in experiment [11], “binds”; in [12], “no binding”; in [1], “binds”.

For the origin of these results see article PMC5253658.
